± gives the standard deviation of the averaged measurements. Whole data set: some 4,100 sequences, median “arbitrary fluorescence units” near 780, cut for the highest 2% near 22,000. The list shows a part of the results.
Biological target: T1, ETS1 (UniProt P14921)
T1 sequence: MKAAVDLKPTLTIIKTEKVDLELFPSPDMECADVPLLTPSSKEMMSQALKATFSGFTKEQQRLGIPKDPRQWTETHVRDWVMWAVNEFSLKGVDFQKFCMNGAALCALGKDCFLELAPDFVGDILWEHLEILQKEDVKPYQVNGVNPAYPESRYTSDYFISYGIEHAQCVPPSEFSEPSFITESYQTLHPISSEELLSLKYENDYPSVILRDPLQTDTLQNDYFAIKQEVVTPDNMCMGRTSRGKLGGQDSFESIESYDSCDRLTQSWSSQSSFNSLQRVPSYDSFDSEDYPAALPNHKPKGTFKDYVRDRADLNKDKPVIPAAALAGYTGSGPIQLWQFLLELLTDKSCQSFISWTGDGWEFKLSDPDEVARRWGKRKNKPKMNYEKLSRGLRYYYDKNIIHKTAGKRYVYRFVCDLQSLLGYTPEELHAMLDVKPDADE
Experiment: ETS1 binding intensity (PBM fluorescence), ETS1 alone (arbitrary fluorescence units); higher = stronger binding
Conditions: ETS1 concentration 1 nM; RUNX1 concentration 0 nM
Method in brief: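 Double-stranded Agilent 4 × 180k arrays held 36-bp genomic probes whose RUNX1 partner site was mutated, and these were incubated with 1 nM full-length recombinant human ETS1 in the absence of RUNX1 under standard PBM protocols. Bound protein was labelled with anti-ETS1 antibody (Cell Signaling Technology 14069) plus an Alexa488-conjugated secondary and read on a GenePix 4400A, with four spots printed per sequence. Binding level is reported as raw spot fluorescence intensity summarised over replicate spots.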

Sequence | ETS1 binding intensity
TGCTTCTTCGGTGGCAGTGGCTTCCTCTGGCAAGGG | 470
CGGTGCAATGGTTCCGCCTCCCGCTGGTTCGCCGAG | 462
AGCTGGGGGCGCTTGTGGAGGGAAGTCCCTTGGCAT | 412
GGCGTGCTTCGGTGCTGTCATTTCCTGGTGCCTTTT | 1470
TGGGGCTCTTCCTGCTTATGTGAGCACAGCACCTTG | 4750
CCGCCCACTTCCGTGTGGCCGCCGATTGGTCTTGCC | 7350
GACAACTGCCAGTAACGACAGCAGCTTCCGTTCCCC | 1380
GGTGGACCTGTGATTTGCAACACAGGAAGAGGCGGC | 1260
AAAGGTGCTTGAGATCTATCCCACATCCTGTCTTTC | 2450
GTTTCGGGCCGAAGAAGCTCATGAGGGAAACGCAGG | 366
ACTCCAGGATCCGGCCGCGTTGCTCACACACTTCGC | 1180
TGAGGGCATAGGAAGTGATGGCCGTAAGGGGATGCC | 673
TTTGATTTCCTGTCTCCATGTTGGGGTCAAGATTGC | 16200
GAAGGAAGCCCGGTCACCTTTCTTGGCCCTCAGAGT | 419
CCAGAAATCCACTGGAGGTAACTTCCTCCATTTTTT | 783
CCCTTCCTGTGAGGGAGGTTCCAGTTCCCTCAGCGG | 7140
TGCTTCATCTGAGGTGAGGGCTGCTTCCTGCTCTGT | 850
TGCGCCGCTTCCGCTGCCCGAGGAAGAGCCCCAGTC | 8590
TATGCTGGGACTGCTAGCCCTTCCGGCGCGCCTCAG | 1250
GCGCTGTACTGCGCCTTGTGCCGCTTCCGCGAGAAG | 369
GCCCCTTTTTCCTGGGATGAGCGCTTAGCGGAGGGG | 746
CCGAGGTGGTGCCCTTGCCCCTGATGAGGAAACTGA | 342
TGGATAAGCGCGCAAGGTCTCGCGGAAAGGAGAGGA | 347
CTAAGGCTGTGATTTGTACCCTAGCAGGAAAGGCAG | 421
ACTCTAAGCGCAGTGACGTGGGACTTCCTCGGCAGG | 400
CAATGTGATTAAAACCAGTTAGTTCCCTCGGAAGTT | 473
CCAGTGCAGAAACATCCCTCCTGCCGCCGCTTTGTC | 422

Sequence | ETS1 binding intensity
ACCCACTTCCTGTTAGAGCATCTTTGCAACCCCAGG | 30200
CCCGCCACCTCAGAAGAGCCAATCGGAAGCTCTGGG | 351
CCCAGAGCTTCCGATTGGCTCTTCTGAGGTGGCGGG | 1750
AAACAGGAAATCACAGCAGCGTAGCGGAGTGGAGCA | 4950
GCCTCTCTGGGCTGATGAAGGACAGACAGGAAGCCA | 546
TGAAGTTGAGGGGTGTTTTTATCAGCAGGAAACAGC | 407
GAATAACTACAACAACCGATGCACTTCCGTGTTTAA | 893
ATTCTGCATCCTGTGCTCTTTCCATGAGACCAAAAA | 5770
CCTAAAACCCAGTTCCGGGACCCAGCGCTGAAGGTC | 1900
TGTTGACTCAGGAAGATGATGGCTGAGGGGGCTGCA | 509
GTTGAGGTGTCCCACTAACCAAACAGGATGTGGGGG | 1740
TGCGCTCGATTGTGAGCGGGGGCGGAAAGAGGCGCC | 471
CATGGCCCTGGGGCTGGACCGGACGCGGCGGCTGCA | 576
TTGTTGTAGTTCTACGTCACGTGGTCCCGGAAGTTC | 662
CGTTCTCTCATTTCCTGTGTGCACCCTCATGAACCA | 15600
AGAGCCACATCCCGCGCAGAGGACAGCGGCGACCGG | 1290
AGAATCCGCTGGGCGGAGCAGCGGGAGGAAGCTGCA | 927
TTGCTTTATCACTTCCTGTTTGAGCTTTATATCCAT | 21400
CTGGAACAGCAGGATCCTTGCTGCTTCCTCTCGGTC | 527
CTGCAGCGGGGATCCTTGGGGCCCTTCCGGTCGGTG | 2190
AGGCAATCTGGGGCTGTAGTTTCCTCAGTTCAGGCT | 335
TAAACCCTGCTTCCTGTCCCTGCGCCCCACTAGGAG | 9870
GCCCCGCCTACAGAGGAGGGTACCCCGCCGGAAGCC | 473
CAGGGGCCGCTGTCGCGCTCCTCGCGGCCGGAAGAG | 420
TGGCGGCTCTGGGGATTTGCCGGAAGGTTAATAATG | 383
GACACTCATCCTGACTCCACTCGCCTGCAGGCAGGC | 549
TTCTATCCTGCCTTGCATGTCTTTAATCACACTGAG | 1540

Sequence | ETS1 binding intensity
CTACAGTTTAATCACAGAGTTTCCTCCTTAACGTAA | 619
GCCCCAGGAAGAGCGCTCCCGCGAACTGCGCCGGTG | 477
TACAGCTTCCTTCACCCCACTTGGGGCCTGGGTTAC | 1140
GGTGGGAGTGAGCACAACACTTCCTGCCCTCTTCCA | 3330
CTTTAAGGAGGCGGAAAAGTTAACAGCGATGGGCAG | 398
TCCGTGACGTGAGGTGTAGTTGGGGAAACGCACCGT | 325
AGGCAAAAGTCACAGCCACACAGGATGGGGCCTCCC | 403
TCCTAAAGCAGGAAATAGTGAGGCTACCGAAGTGTC | 3730
CCCTGAGCACTTCCCCGTAAGGCTGGGGTGCACGGG | 645
GTTCTCAGCTTCCTGTTCACAGAGAAACGTCAGACA | 14100
TATTCTTGCTTGTAGTTATTTGCATCCTGTTGCTCT | 1010
TATTACTTCAGGAAGCCCAGGGGGAATCGCGCCCCG | 478
CTGCAGTGATGAGGCGAAAGGGATCCCGGAAAAGCC | 412
CCGCGGCGGAACCCGAGGGCGGCGGCAGCGGATTCC | 352
GGGCTGGCTGCTACGGCAGCATTTCCTGACTTCTTC | 1000
TGGCACCCCCTTCGGCAGTCCCGGATCCGAGCAACC | 309
ACACCACTAACAAGCACGGCCGCTTCCTGAACCTGT | 595 ± 9.2
CTGGGTCGTGGCACTGAGCCAGGAAGTCCCCTGGGT | 527
GGTTTTGGTAGGAAGGAAAGTGCTTTTCATAGGAAG | 389
CCCTGCCGGAACACGTGCGCCTCTGGTGACCCGGCA | 534
AGCCGGAGGCGGAAGGAGCAGCGCTACCGAAGCGTC | 873
AGTTGCCCGAAGGTCAACACCCACTTCCCTTCAAAC | 447
ATTACATCCGGGCTCCGCGACACGCCCGAACCCCAA | 25300
ACTTCTCCGCCTGCAGGCCACTTCCGGCCCCTGTAA | 15100
TTTTATCCTTCCTTTTTTGTTCTTTGGGGTGGAGGT | 1600
CCTAGCCGACGCCCTCAATAGGCGGAAGTGGCCGGG | 1390

— the supplement of paper PMC10681739
